# Data as given in the supplement of paper PMC8728848.
# This is one part of the list.
# B1: PX15618A-bth-503-24-503 (Bacteroides thetaiotaomicron) (protein)
# chain: NKSEDKLSGDDFWAQGNETNAEAFLLSIYNSFRNATMSQRPFLTYSGDMRCAPITAYSTGDKYVAYLANNDMGELRNTYPDDARGGLIMQWDVFYTAIQDANILLAEIDKVPGMDELKRSRFKAEAIFMRSLSYFFIVRAFGDVPYYTNAYNEAPLPRTNMVIVLQNCLADLQPLLDDDPGAEVLPWSYSSYSSKGIRASRGSVIALMMHINLWLVQFDAQNKEQYYRNVVSLGEELERNNGAYSLLDINRSSVIFAGGSDEGLFEIAQNINFNEIFMMNAKFSDNVSYSCLNKSMPLFCYSGDYLMTLFPMYEDDARKELWFDEKIYSTSVSSSAPKEIKKFWNIDTYGNGTITSNSGNQIVFRYAGALLLYAEALAALGTNDTKACELLNRVRNRAHASEINTSGSELMDAIFWERCRELIGEGHYYYDLVRTGKVYNRNYCMNPMTRTNFNVGAWTWPIHRNALKNNTQIGLNLFWE
# Key:
# Test in all cases: glycan array binding signal (z-score within array); higher = stronger binding
# Conditions in all cases: glycan notation: IUPAC condensed, linker removed
# [1] = target: Gal(b1-4)GlcNAc(b1-2)Man(a1-6)[Man(a1-3)]Man(b1-4)GlcNAc(b1-4)GlcNAc
# Summary of the method: (§1)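 Glycan array binding is given as a within-array Z-score, which can be read as non-binding when negative. The arrays, 3228 of them, came from the Consortium for Functional Glycomics database and were retained only where the protein sequence was available. Z-scores were averaged across arrays of the same protein sequence at different concentrations or buffers and across linkers.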
# [2] = target: Gal(b1-4)GlcNAc(b1-2)[Gal(b1-4)GlcNAc(b1-4)]Man(a1-3)[Gal(b1-4)GlcNAc(b1-2)Man(a1-6)]Man(b1-4)GlcNAc(b1-4)GlcNAc
# Summary of the method: as §1
# [3] = target: Gal(b1-4)GlcNAc(b1-2)[Gal(b1-4)GlcNAc(b1-4)]Man(a1-3)[Gal(b1-4)GlcNAc(b1-2)[Gal(b1-4)GlcNAc(b1-6)]Man(a1-6)]Man(b1-4)GlcNAc(b1-4)GlcNAc
# Summary of the method: as §1
# [4] = target: Gal(b1-4)GlcNAc(b1-2)[Gal(b1-4)GlcNAc(b1-4)]Man(a1-3)[GlcNAc(b1-4)][Gal(b1-4)GlcNAc(b1-2)Man(a1-6)]Man(b1-4)GlcNAc(b1-4)GlcNAc
# Summary of the method: as §1
# [5] = target: Gal(b1-4)GlcNAc(b1-2)[Gal(b1-4)GlcNAc(b1-4)]Man(a1-3)[GlcNAc(b1-4)][Gal(b1-4)GlcNAc(b1-2)[Gal(b1-4)GlcNAc(b1-6)]Man(a1-6)]Man(b1-4)GlcNAc(b1-4)GlcNAc
# Summary of the method: as §1
# [6] = target: Gal(b1-4)GlcNAc(b1-2)[Gal(b1-4)GlcNAc(b1-6)]Man(a1-6)[Gal(b1-4)GlcNAc(b1-2)Man(a1-3)]Man(b1-4)GlcNAc(b1-4)GlcNAc
# Summary of the method: as §1
# [7] = target: Gal(b1-4)GlcNAc(b1-2)[Gal(b1-4)GlcNAc(b1-6)]Man(a1-6)[Gal(b1-4)GlcNAc(b1-2)Man(a1-3)]Man(b1-4)GlcNAc(b1-4)[Fuc(a1-6)]GlcNAc
# Summary of the method: as §1
# [8] = target: Gal(b1-4)GlcNAc(b1-2)[Gal(b1-4)GlcNAc(b1-6)]Man(a1-6)[GlcNAc(b1-4)][Gal(b1-4)GlcNAc(b1-2)Man(a1-3)]Man(b1-4)GlcNAc(b1-4)GlcNAc
# Summary of the method: as §1
# [9] = target: Gal(b1-4)GlcNAc(b1-2)[Gal(b1-4)GlcNAc(b1-6)]Man(a1-6)[GlcNAc(b1-4)][Gal(b1-4)GlcNAc(b1-2)[Gal(b1-4)GlcNAc(b1-4)]Man(a1-3)]Man(b1-4)GlcNAc(b1-4)[Fuc(a1-6)]GlcNAc
# Summary of the method: as §1
# [10] = target: Gal(b1-4)GlcNAc(b1-3)Gal(b1-3)GalNAc
# Summary of the method: as §1
# [11] = target: Gal(b1-4)GlcNAc(b1-3)Gal(b1-3)GlcNAc
# Summary of the method: as §1
# [12] = target: Gal(b1-4)GlcNAc(b1-3)Gal(b1-4)Glc
# Summary of the method: as §1
# [13] = target: Gal(b1-4)GlcNAc(b1-3)Gal(b1-4)GlcNAc
# Summary of the method: as §1
# [14] = target: Gal(b1-4)GlcNAc(b1-3)Gal(b1-4)GlcNAc(b1-2)Man(a1-3)[Gal(b1-4)GlcNAc(b1-3)Gal(b1-4)GlcNAc(b1-2)Man(a1-6)]Man(b1-4)GlcNAc(b1-4)GlcNAc
# Summary of the method: as §1
# [15] = target: Gal(b1-4)GlcNAc(b1-3)Gal(b1-4)GlcNAc(b1-2)Man(a1-3)[Gal(b1-4)GlcNAc(b1-3)Gal(b1-4)GlcNAc(b1-2)Man(a1-6)]Man(b1-4)GlcNAc(b1-4)[Fuc(a1-6)]GlcNAc
# Summary of the method: as §1
# [16] = target: Gal(b1-4)GlcNAc(b1-3)Gal(b1-4)GlcNAc(b1-2)[Gal(b1-4)GlcNAc(b1-3)Gal(b1-4)GlcNAc(b1-6)]Man(a1-6)[Gal(b1-4)GlcNAc(b1-3)Gal(b1-4)GlcNAc(b1-2)Man(a1-3)]Man(b1-4)GlcNAc(b1-4)GlcNAc
# Summary of the method: as §1
# [17] = target: Gal(b1-4)GlcNAc(b1-3)Gal(b1-4)GlcNAc(b1-2)[Gal(b1-4)GlcNAc(b1-3)Gal(b1-4)GlcNAc(b1-6)]Man(a1-6)[Gal(b1-4)GlcNAc(b1-3)Gal(b1-4)GlcNAc(b1-2)Man(a1-3)]Man(b1-4)GlcNAc(b1-4)[Fuc(a1-6)]GlcNAc
# Summary of the method: as §1
# [18] = target: Gal(b1-4)GlcNAc(b1-3)Gal(b1-4)GlcNAc(b1-3)Gal(b1-4)GlcNAc
# Summary of the method: as §1
# [19] = target: Gal(b1-4)GlcNAc(b1-3)Gal(b1-4)GlcNAc(b1-3)Gal(b1-4)GlcNAc(b1-2)Man(a1-3)[Gal(b1-4)GlcNAc(b1-3)Gal(b1-4)GlcNAc(b1-3)Gal(b1-4)GlcNAc(b1-2)Man(a1-6)]Man(b1-4)GlcNAc(b1-4)GlcNAc
# Summary of the method: as §1
# [20] = target: Gal(b1-4)GlcNAc(b1-3)Gal(b1-4)GlcNAc(b1-3)Gal(b1-4)GlcNAc(b1-2)Man(a1-3)[Gal(b1-4)GlcNAc(b1-3)Gal(b1-4)GlcNAc(b1-3)Gal(b1-4)GlcNAc(b1-2)Man(a1-6)]Man(b1-4)GlcNAc(b1-4)[Fuc(a1-6)]GlcNAc
# Summary of the method: as §1
# [21] = target: Gal(b1-4)GlcNAc(b1-3)Gal(b1-4)GlcNAc(b1-3)Gal(b1-4)GlcNAc(b1-2)[Gal(b1-4)GlcNAc(b1-3)Gal(b1-4)GlcNAc(b1-3)Gal(b1-4)GlcNAc(b1-6)]Man(a1-6)[Gal(b1-4)GlcNAc(b1-3)Gal(b1-4)GlcNAc(b1-3)Gal(b1-4)GlcNAc(b1-2)Man(a1-3)]Man(b1-4)GlcNAc(b1-4)[Fuc(a1-6)]GlcNAc
# Summary of the method: as §1
# [22] = target: Gal(b1-4)GlcNAc(b1-3)Gal(b1-4)GlcNAc(b1-3)Gal(b1-4)GlcNAc(b1-3)Gal(b1-4)GlcNAc(b1-2)Man(a1-3)[Gal(b1-4)GlcNAc(b1-3)Gal(b1-4)GlcNAc(b1-3)Gal(b1-4)GlcNAc(b1-3)Gal(b1-4)GlcNAc(b1-2)Man(a1-6)]Man(b1-4)GlcNAc(b1-4)GlcNAc
# Summary of the method: as §1
binder,measurement,setting,value
B1,glycan array binding signal (z-score),[1],12.1
same,glycan array binding signal (z-score),[2],0.158
same,glycan array binding signal (z-score),[3],-0.519
same,glycan array binding signal (z-score),[4],-0.247
same,glycan array binding signal (z-score),[5],-0.272
same,glycan array binding signal (z-score),[6],1.01
same,glycan array binding signal (z-score),[7],1.93
same,glycan array binding signal (z-score),[8],0.56
same,glycan array binding signal (z-score),[9],0.015
same,glycan array binding signal (z-score),[10],-0.241
same,glycan array binding signal (z-score),[11],-0.548
same,glycan array binding signal (z-score),[12],-0.181
same,glycan array binding signal (z-score),[13],-0.173
same,glycan array binding signal (z-score),[14],0.547
same,glycan array binding signal (z-score),[15],0.001
same,glycan array binding signal (z-score),[16],0.463
same,glycan array binding signal (z-score),[17],0.652
same,glycan array binding signal (z-score),[18],-0.233
same,glycan array binding signal (z-score),[19],1.77
same,glycan array binding signal (z-score),[20],0.321
same,glycan array binding signal (z-score),[21],0.532
same,glycan array binding signal (z-score),[22],0.837
